Where “and” joins values, the source holds several entries; their conditions need not be identical. Equal entries are not always repeated. In all, about 130,000 compounds went through this assay and about 1,900 (1.5%) were called active. Inconclusive results, whose numbers are uncertain, are shown with a selection of clear calls. Calls come from the whole dose curve; as a rule, active = well fitted cell-killing curve with a large enough effect; inconclusive = small, poorly fitted or top-dose-only effect; inactive = no such curve, though single readings can be large or run the other way. Potencies of inconclusive entries are doubtful fits and often do not repeat.
Test: qHTS Screen for Compounds that Selectively Target Cancer Cells with p53 Mutations: Cytotoxicity of p53ts Cells at the Nonpermissive Temperature; note: nearly all actives have a fitted effect of over 55% in size
Settings: H1299-p53A138V viability at 39C, ATP luminescence, 24 h; activity change, negative = cell killing: at 46.1 µM (top of the series)
For `Cc1ccc(NC(=O)C2=CC(c3ccc4c(c3)OCO4)=NS(=O)(=O)N2C)cc1`, the “activity change, negative = cell killing” value was inactive: 2.64%.
With `CCN1C=CC(=C2C(=O)c3ccccc3C2=O)C=C1` the Potency was active: 0.251 µM.
With `O=C(CSc1nc(-c2ccc(F)cc2)cc(C(F)(F)F)n1)NCCc1ccccc1` the “activity change, negative = cell killing” value was inactive: 23.3%.
With `O=C(CCCn1c(=S)[nH]c2ccc(Br)cc2c1=O)N1CCN(c2ccccn2)CC1` the Potency was inconclusive: 25.1 µM [cytotoxic, single point].
With `N#Cc1cccc(-c2nccc(NCc3cccs3)n2)c1` the Potency was inconclusive: 20 µM [cytotoxic, single point].
With `O=C(Cn1c(=O)oc2cc(S(=O)(=O)NCc3ccccc3)ccc21)NCc1ccc(Cl)cc1` the Potency was inconclusive: 10 µM [cytotoxic, partial curve].
For `Cc1ccc(-n2c(SCC(N)=O)nc3c(oc4ccccc43)c2=O)cc1C`, the Potency was inconclusive: 0.0079 µM [cytotoxic, full curve, poor fit].
For `COC(=O)CSc1ccc2nnc(-c3ccc(OC)c(OC)c3)n2n1`, the “activity change, negative = cell killing” value was inactive: -12.5%.
In the case of `CCOc1ccc(/C=C/c2nc(C#N)c(NCCc3ccccc3)o2)cc1`, the Potency is reported as inconclusive: 1 µM [cytotoxic, full curve].
In the case of `CN(C)S(=O)(=O)c1ccc(C(=O)Nc2ccc(OCC(=O)N3CCOCC3)cc2)cc1`, the Potency is reported as inconclusive: 7.94 µM [cytotoxic, partial curve].
In the case of `Cc1[nH]n2c(=O)cc(C(C)(C)C)nc2c1-c1ccccc1`, the Potency is reported as inconclusive: 3.16 µM [cytotoxic, full curve].
For `COc1ccc(S(=O)(=O)Nc2cc3c(cc2NCc2ccccc2)n(C)c(=O)n3C)cc1`, the Potency was inconclusive: 12.6 µM [cytotoxic, partial curve].
For `CCC(=O)Nc1ccc(Nc2ccccc2)cc1`, the “activity change, negative = cell killing” value was inactive: 2.94%.
With `N#Cc1ccccc1NC(=O)c1cnc(N2CCOCC2)c2ccccc12` the Potency was inconclusive: 3.16 µM [cytotoxic, partial curve, poor fit].
For `CCC(=O)N1CCc2cc(Br)cc(S(=O)(=O)CCC(=O)NCc3ccc(F)cc3)c21`, the “activity change, negative = cell killing” value was inactive: -4.71%.
With `CC(=O)N1CCOc2cc(S(=O)(=O)N(C)Cc3ccccc3)c(Cl)cc21` the Potency was inconclusive: 2.24 µM [cytotoxic, partial curve, poor fit].
For `Cn1nnnc1SCCCNCc1cccc(OCc2ccccc2Cl)c1`, the Potency was inconclusive: 12.6 µM [cytotoxic, single point].
In the case of `CCCc1cc(C(=O)Nc2nnc(C)s2)cs1`, the Potency is reported as inconclusive: 12.6 µM [cytotoxic, partial curve].
With `COc1ccc(C2CC(c3c(O)cc(C)oc3=O)=NCCS2)c(OC)c1` (centres undefined) the Potency was active: 2.51 µM.
In the case of `O=C(NC1=NC2CCCCC2N1)c1ccccc1` (centres undefined), the Potency is reported as inconclusive: 1.26 µM [cytotoxic, full curve].
For `CCc1nn(CC(=O)N2CCN(c3cccc(C(F)(F)F)c3)CC2)c(=O)c2cccn12`, the Potency was inconclusive: 25.1 µM [cytotoxic, single point].
For `CCOC(=O)c1ccc(NS(=O)(=O)c2ccc3[nH]c4c(c3c2)CCCCC4)cc1`, the Potency was active: 15.8 µM.
For `COc1ccccc1N1CCN(CC(O)COc2ccc(C)cc2C(C)(C)C)CC1` (centres undefined), the Potency was active: 25.1 µM.
In the case of `Cc1nc2ccccc2n1CCc1nc2c3ccccc3nc(SCc3ccc(F)cc3)n2n1`, the activity change, negative = cell killing is reported as inconclusive: -35.3% [cytotoxic].
In the case of `COc1ccc2c(c1OC)C(=O)N(c1cccc(C)c1)C2`, the Potency is reported as active: 5.01 µM.
In the case of `Cc1ccc(C)c(N2CCN(CCCNC(=O)Nc3ccc(Cl)cc3)CC2)c1`, the Potency is reported as active: 10 µM.
In the case of `CCOc1ccc2c(c1)c(=O)c(C(=O)c1ccc(CC)cc1)cn2CC(=O)Nc1ccccc1C`, the Potency is reported as inconclusive: 12.6 µM [cytotoxic, single point].
With `COc1ccc(NC(=O)Cn2c(=O)n(-c3ccc(C)c(C)c3)c(=O)c3c(C)c(C)sc32)cc1` the Potency was inconclusive: 0.794 µM [cytotoxic, full curve, poor fit].
With `O=C(c1ccc2c(Cl)c3c(nc2c1)CCCC3)N1CCN(c2ccccc2F)CC1` the Potency was inconclusive: 31.6 µM [cytotoxic, single point].
With `CCOC(=O)c1cnc(SC)nc1Nc1cccc(F)c1` the “activity change, negative = cell killing” value was inactive: -0.972%.
With `COc1cccc(C2=CC(c3ccccc3F)n3c(nc4ccccc43)N2)c1` (centres undefined) the Potency was active: 10 µM.
In the case of `O=C(CSc1nc2ccccc2n1Cc1c(F)cccc1Cl)N1CCN(c2ccc(F)cc2)CC1`, the Potency is reported as inconclusive: 3.16 µM [cytotoxic, partial curve].
With `O=C(CSc1nc2ccsc2c(=O)n1Cc1ccccc1Cl)NCc1ccc(Cl)cc1` the “activity change, negative = cell killing” value was inactive: -5.48%.
With `CCOc1cc(CNC(=O)c2ccc3nc(CCc4ccccc4)oc3c2)ccc1OC` the Potency was inconclusive: 0.02 µM [cytotoxic, full curve, poor fit].
With `COc1cc2c(cc1OC)CN(C(=O)CC1CC3CCC1C3)CC2` (centres undefined) the Potency was active: 12.6 µM.
For `O=C(NCc1ccccc1)c1ccc2c(c1)nc1n2CCCCC1`, the Potency was inconclusive: 10 µM [cytotoxic, partial curve].
With `CCc1ccc(NC(=O)Cn2c(=O)n(CC3CCCO3)c(=O)c3cc(OC)c(OC)cc32)cc1` (centres undefined) the Potency was inconclusive: 31.6 µM [cytotoxic, single point].
In the case of `COc1ccc(NC(=O)Nc2ccccc2OCc2cc(=O)n3ccccc3n2)c(OC)c1`, the Potency is reported as active: 15.8 µM.
For `Cc1cccc(C#Cc2ccccc2)n1`, the Potency was inconclusive: 15.8 µM [cytotoxic, partial curve] and inconclusive: 12.6 µM [cytotoxic, partial curve].
For `COc1ccc(CC(=O)Nc2cc(C)on2)cc1`, the “activity change, negative = cell killing” value was inactive: -12.4%.
For `CC(=O)N1CCc2c(sc3c2c(=O)n(CCc2ccccc2)c(=O)n3Cc2cccc(C)c2)C1`, the Potency was inconclusive: 5.01 µM [cytotoxic, partial curve].
In the case of `CCn1cc2nc(SCc3ccc(F)cc3)n(Cc3ccc(Cl)cc3)c(=O)c2n1`, the Potency is reported as active: 12.6 µM.
In the case of `Oc1[nH]c2ccccc2c1C=Nc1ccc2c(c1)OCO2`, the Potency is reported as inconclusive: 12.6 µM [cytotoxic, single point].
For `CCOC(=O)c1ccc(CN(Cc2ccc(C)cc2)S(=O)(=O)c2ccc(NC(C)=O)cc2)cc1`, the Potency was inconclusive: 0.005 µM [cytotoxic, full curve].

Source: PubChem BioAssay AID902 (National Center for Advancing Translational Sciences (NCATS), 2007)
% is set by controls: 0 for no effect and ±100 for the full control effect; potency is the fitted concentration of half-maximal effect; tags give direction and shape of the fitted curve.
